Results on 114 molecules are retold here after PubChem BioAssay AID488969 (Vanderbilt High Throughput Screening Facility, 2010).

SMILES strings stand for the structures. The full ranking holds about 110,000 compounds; the median of “z-score” is about -0.1, and the highest 2% start at about 2. This is one part of the list. Active and inactive are the calls of the source.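 The calls were made as follows: active = z-score in the third read window above 3 or below -3; inactive = the rest.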

In this experiment the target is Metabotropic glutamate receptor 8 (Rattus norvegicus) (UniProt P70579). The experiment in a line: rat mGluR8 modulators via GIRK flux, primary screen, cell-based, thallium flux, HTS (AID 488969). Conditions: HEK293 rat mGluR8, GIRK (G protein-gated inwardly rectifying potassium channel) thallium flux, FluoZin2; at 10 µM; stronger effect = higher value; submaximal glutamate (EC20) added with thallium.
UniProt P70579, sequence (P70579 whole entry, looked up): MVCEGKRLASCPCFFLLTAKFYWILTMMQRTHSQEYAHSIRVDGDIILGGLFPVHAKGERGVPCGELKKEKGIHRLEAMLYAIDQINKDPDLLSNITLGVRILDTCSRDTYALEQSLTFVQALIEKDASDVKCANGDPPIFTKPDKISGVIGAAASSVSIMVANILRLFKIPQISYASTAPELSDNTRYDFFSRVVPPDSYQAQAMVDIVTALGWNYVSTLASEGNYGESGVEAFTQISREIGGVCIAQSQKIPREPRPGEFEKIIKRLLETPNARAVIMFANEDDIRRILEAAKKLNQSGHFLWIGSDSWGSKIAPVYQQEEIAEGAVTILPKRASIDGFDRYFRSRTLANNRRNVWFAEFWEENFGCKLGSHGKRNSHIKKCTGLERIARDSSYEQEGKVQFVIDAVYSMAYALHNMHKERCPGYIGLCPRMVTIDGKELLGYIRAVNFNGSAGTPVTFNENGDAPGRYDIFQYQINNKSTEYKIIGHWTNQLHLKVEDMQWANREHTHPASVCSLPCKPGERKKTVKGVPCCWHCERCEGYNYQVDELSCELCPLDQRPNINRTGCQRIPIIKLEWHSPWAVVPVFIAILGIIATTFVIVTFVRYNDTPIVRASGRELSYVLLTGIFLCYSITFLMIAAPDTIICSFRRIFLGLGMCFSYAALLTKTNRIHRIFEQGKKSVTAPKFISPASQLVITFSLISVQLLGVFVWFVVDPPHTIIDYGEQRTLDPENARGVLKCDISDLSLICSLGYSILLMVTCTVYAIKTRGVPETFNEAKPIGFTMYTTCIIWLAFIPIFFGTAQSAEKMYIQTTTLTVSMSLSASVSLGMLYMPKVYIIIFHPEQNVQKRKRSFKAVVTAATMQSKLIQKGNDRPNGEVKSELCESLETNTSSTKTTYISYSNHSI
The molecule `O=C1CC(Nc2ccccc2)C(=O)N1c1ccc(N2CCOCC2)cc1` (centres undefined) had a z-score of 0.235.
To `Cc1cccc(NC(=O)c2ccc([N+](=O)[O-])s2)c1C` belongs -0.0023; to `COc1ccc(CC(=O)NNC(=S)Nc2ccccc2)cc1Br`, 0.376.
`COc1ccc(C)cc1NC(=O)c1nc2nc(C)cc(C)n2n1` gave a z-score of -0.166.
`COc1cccc(-c2ccc(C#N)c(OC(=O)c3ccc(Cl)cc3)n2)c1` registered a z-score of 0.282.
Regarding `CCc1ccccc1NC(=O)c1cccc(Oc2ccc([N+](=O)[O-])cc2Cl)c1`, the z-score is -0.0174.
`O=C(NCCCc1ccccc1)c1ccncc1` gave a z-score of 0.0631.
To `CCCC(C)NS(=O)(=O)c1ccc(OC)c(C)c1` (centres undefined) belongs 0.0199; to `CCCc1cc(C(=O)O)c2ccccc2n1`, 0.391.
The result for `COc1ccccc1C(=O)NC(C)C(c1cccs1)N1CCN(C)CC1` (centres undefined) reads 0.707; that for `CSc1c(CC(=O)Nc2ccccc2)n(Cc2ccccc2)c2ccccc12`, -0.158; that for `CN(C)c1oc(COc2ccccc2F)nc1C#N`, -0.275.
On to `COc1ccc(-c2nc(CSCC(=O)N3CCN(C4CCCCC4)CC3)c(C)o2)cc1OC`, for which the z-score is -0.529.
To `COc1ccc(C(=O)Nc2ccc(S(=O)(=O)N3CCCCC3)cc2)cc1` belongs -0.709.
To `O=C(CCN1CCN(Cc2ccccc2)CC1)Nc1cccc(Cl)c1` belongs -0.137.
`Cc1ccc(NC(=O)CSc2nn(-c3ccccc3)c(=S)s2)cc1S(=O)(=O)N(C)C` registered a z-score of -1.54.
To `CCN(CC)C(=O)c1sc2nc(-c3ccncc3)[nH]c(=O)c2c1C` belongs -0.582.
The result for `CN(C)CC(C)(C)CNC(=O)c1cc(=O)c2ccccc2o1` reads -0.272; that for `O=C(NCc1ccco1)c1ccc2c(=O)n(CC3CCCO3)c(=S)[nH]c2c1` (centres undefined), 0.879.
To `Cc1csc(NC(=O)c2cc3c(C)nn(Cc4ccccc4Cl)c3s2)n1` belongs -1.61; to `CC(C)CCOc1ccc(C(=O)NCCC(=O)N2CCOCC2)cc1`, -0.0354.
In turn, `COc1ccccc1NC(=O)NCC(=O)Nc1ccc(F)c(F)c1` gave a z-score of 0.909.
`CCOc1cccc(C2C(C#N)=C(N)Oc3cc(C)oc(=O)c32)c1OCC` (centres undefined) yielded a z-score of -0.48.
The result for `Cc1c(C#N)c(N)nc2c3c(sc12)NC(=O)CC3c1ccc(Cl)cc1` (centres undefined) reads -1.47; that for `CCCCc1cc(=O)oc2c(CN(C)C)c(O)c(Cl)cc12`, -0.228.
To `NC(=O)/C(=C/c1ccco1)NC(=O)/C=C/c1ccccc1` belongs 0.0658; to `N#Cc1cc2c(nc1SCC(=O)Nc1sc3c(c1C#N)CCC3)CCCC2`, -0.0894; to `NC(=O)SCC(=O)Nc1cccc(Cl)c1`, 2.86.
Consider `CCNC(=O)Cn1c(=O)c(=O)n(Cc2ccccc2)c2ccc(Cl)cc21`, for which the z-score is -0.225.
The result for `Nc1c(NC2CCCCC2)c2ccccc2oc1=O` reads -0.238; that for `O=[N+]([O-])c1ccc(C2CCCC/C2=N\OCc2cccc(F)c2)c([N+](=O)[O-])c1` (centres undefined), -0.436.
The result for `Cc1ccc(C(c2sc3nc(C)nn3c2O)N2CC(C)OC(C)C2)cc1` (centres undefined) reads 0.859; that for `Cc1ccc(N/C=C(/C#N)c2ccsc2)cc1C`, -1.02; that for `CCCOc1ccc(-c2nnc(N)s2)cc1`, -0.502.
To `CCCNC(=O)c1ccccc1NS(=O)(=O)c1ccc(OC)c(OC)c1` belongs -0.122.
As to `FC(F)(F)c1cnc(NNC(=S)Nc2ccccc2Cl)c(Cl)c1`, the z-score is active: 5.28.
To `CNC(=O)CSc1nnc(-c2cc(C)cc(C)c2)o1` belongs 0.00701.
The result for `CCCCCCCCC(=O)N/N=C(\C)c1cccnc1` reads -0.226; that for `O=c1cc(-c2cccs2)oc2ccc(Cl)cc12`, -0.565; that for `C/C(CC1CC(COCC(C)C)OC1=O)=N\Nc1nc(-c2ccccc2)cs1` (centres undefined), -0.26.
To `Cn1c(=O)n(Cc2ccco2)c(=N)c2c3c(sc21)CCC3` belongs -0.795; to `CC1(CCc2ccc3c(c2)OCO3)NC(=O)c2ccccc2N1` (centres undefined), -0.121; to `CN(C)S(=O)(=O)N(CCN1CCOCC1)Cc1ccccc1F`, 0.784.
Consider `Cc1sc(-c2ccncc2)nc1OC(=O)c1cc(Cl)cc(Cl)c1`, for which the z-score is -0.398.
On to `CN(C)c1ccnc(Oc2ccc(F)cc2)c1C#N`, for which the z-score is -0.0819.
To `Clc1ccc2c(c1)C(c1cccs1)=NNC(c1cccnc1)=N2` belongs -0.47; to `CCOc1cc(/C=C(\C#N)C(N)=O)ccc1OS(=O)(=O)c1ccccc1`, -0.457; to `C=CCN1C=C/C(=C\C=C(C#N)C#N)c2ccccc21`, -0.0647.
The result for `CCCc1nnc(SCC(=O)N2CCOCC2)n1Cc1ccco1` reads -0.177; that for `CCOC(=O)c1c(CN(CC)CC)oc2ccc(OC)cc12`, -0.0412; that for `O=C(Nc1ccc(F)cc1F)c1ccco1`, -0.0416.
Regarding `CCOC(=O)c1cnc2c(Cl)cccc2c1NCCN(C)C`, the z-score was determined as 0.313.
To `CCCn1c2ccccc2c2nnc(SC(CC)C(=O)Nc3sc4c(c3C#N)CCCC4)nc21` (centres undefined) belongs 0.338.
The result for `Cc1ccc2[nH]c3c(N4CCc5ccccc5C4)ncnc3c2c1` reads -0.285; that for `CCN(Cc1ccccc1)C(=O)c1ccccc1C`, 0.221; that for `COCCn1c(N)c(NCc2ccccc2)c(=O)n(CC(=O)Nc2cc(C)ccc2C)c1=O`, 0.649.
To `CCOC(=O)c1cnc2nc(C(F)(F)F)[nH]n2c1=O` belongs 0.532.
In turn, `COc1cc(OC)cc(C(=O)N/N=C/c2ccc(OC)c(COc3ccc4ccccc4c3)c2)c1` came in with a z-score of 0.0547.
Take `Cc1cccc(N2CCN(c3ccc(N4C(=O)CCCC4=O)cc3[N+](=O)[O-])CC2)c1C`: the z-score is 0.0766.
The result for `CCOc1cc(N2CCOCC2)c(OCC)cc1NC(=O)COC(=O)CCc1c[nH]c2ccccc12` reads active: 8.03; that for `COc1ccc(C(=O)N2CCCC(c3ccccc3)C2)cc1` (centres undefined), -0.568.
As to `Cn1c(C(=O)NCCC2=CCCCC2)cc2c(=O)n3ccccc3nc21`, the z-score is -0.203.
To `Clc1ccc(OCCn2ccnc2)c(Cl)c1` belongs 0.46.
`COc1ccc(CNC(=O)c2cc3c(=O)n4ccccc4nc3n(Cc3ccco3)c2=N)cc1` yielded a z-score of 0.125.
To `COC(=O)C1=C(C)NC(C)=C(C(=O)OC)C1c1ccccn1` belongs -0.0847; to `O=C(CSc1nnnn1-c1ccccc1)N1CCCc2ccccc21`, -0.861; to `Cc1ccc2c(c1)N(Cc1ccncc1)C(=O)C(C)O2` (centres undefined), 0.33.
In the case of `O=C(c1cc([N+](=O)[O-])cc([N+](=O)[O-])c1)N1CCOCC1`, the z-score is -0.155.
For `O=C(COc1ccc(Cl)cc1Cl)N/N=C/CCc1ccccc1`, the z-score is -0.096.
To `CCOc1cccc(C2NC(=S)NC(C)=C2C(=O)Nc2ccccc2)c1` (centres undefined) belongs -0.218; to `CC1=NN(c2ccccc2)C(=O)C1N=Nc1ccccc1` (centres undefined), 0.244; to `O=S(=O)(Nc1cccnc1)c1cccc(Cl)c1`, -0.26.
Molecule `N#Cc1c(N)oc(-c2cccs2)c1-c1cccs1` had a z-score of -0.0686.
As to `CCOC(=O)N1CCC(n2c(SCC(=O)OCc3ccccc3)nc3ccsc3c2=O)CC1`, the z-score was -0.557.
The result for `COc1cccc(/C=C2\N=C3CCCCCN3C2=O)c1` reads -0.996; that for `CN(Cc1ccccc1)S(=O)(=O)c1ccc2c(c1)OCCO2`, -0.128.
As for `COc1ccc(N(C(=O)Cn2nnc(-c3ccc(Cl)cc3)n2)C(C(=O)NCC2CCCO2)c2ccc(C)cc2)cc1` (centres undefined), the z-score was -0.126.
`Cc1nonc1NC(=O)OC1CCCCC1` had a z-score of 0.0658.
In turn, `O=C(CN1CCN(C(=O)c2ccco2)CC1)Nc1cc(Cl)ccc1Cl` came in with a z-score of 1.13.
To `COCCN(C(=O)CSc1nnc2cc(C)c3ccccc3n12)c1c(N)n(Cc2ccccc2)c(=O)[nH]c1=O` belongs 0.689; to `CCCCn1nnnc1NCc1ccc(N(CC)CC)cc1`, 0.144.
To `CC1=N/C(=C/c2ccc([N+](=O)[O-])cc2)C(=O)N1c1ccc(Cl)cc1Cl` belongs 0.0895; to `CCCCn1c(=O)[nH]c(=O)c2c1nc(-c1ccc(-c3ccccc3Br)o1)n2CC`, -0.192.
To `COC(=O)c1ccc(NC(=O)c2ccccc2SC)cc1` belongs -0.17.
For `Cc1cc(Nc2cnc3ccccc3n2)n(-c2ccccc2)n1`, the z-score was -0.592.
To `O=C(Nc1nccs1)c1cc2c(s1)CCCCC2` belongs 0.101; to `O=C(COC(=O)CCc1c[nH]c(=O)[nH]1)Nc1ccccc1`, -0.115.
To `CCCNC(=O)Nc1ccc2c(c1)N(C)C(=O)c1ccccc1S2` belongs -0.238.
The result for `COc1ccc(/C(C)=N/Nc2ccc(C(=O)O)cc2)c(OC)c1` reads 0.0316; that for `Fc1ccc(Nc2nc(Oc3ccc4c(c3)OCO4)nc(N3CCOCC3)n2)c(F)c1`, 0.656; that for `Cc1n[nH]c(C)c1S(=O)(=O)NCCc1ccc(Cl)cc1`, -0.418.
In the case of `COc1ccccc1C(CC(=O)Nc1ccc(Cl)cc1)c1ccc(OC(C)C)cc1` (centres undefined), the z-score is -0.26.
The result for `N#Cc1ccccc1Sc1ccccc1C(=O)Nc1ccc2ccccc2c1` reads 0.199.
To `CCSc1nnc(NC(=O)COc2ccccc2)s1` belongs 0.00217.
The result for `Clc1ccccc1CSc1nnc(Cn2cnc3ccccc32)n1-c1ccccc1` reads 0.172.
Regarding `Cc1nn(-c2ccccc2)c(C)c1/C=N/NC(=O)CSc1nnc(SCc2ccc(Cl)cc2)s1`, the z-score is -0.324.
To `Cc1ccc(NC(=S)NCCN2CCOCC2)cc1` belongs -0.0577; to `O=C1CC(Nc2ccc(N3CCOCC3)cc2)C(=O)N1CCc1ccccc1` (centres undefined), 0.0429.
The result for `CCCSc1nc2sc3c(c2c(=O)[nH]1)CCN(Cc1ccccc1)C3` reads active: 3.04; that for `COc1ccccc1C1C=C(c2ccccc2)Nc2nnnn21` (centres undefined), -0.0457; that for `O=S(=O)(Nc1cccnc1)c1ccc(C2CCCCC2)cc1`, -0.42.
To `Cc1ccc(C(=O)Nc2nnc(C3CCCCC3)s2)o1` belongs -0.163; to `O=C(Cc1ccccc1)N(c1ccc(F)cc1)C1C=CS(=O)(=O)C1` (centres undefined), -0.0671.
`COc1ccc(CCNC(=O)CSc2nc(C)cs2)cc1` had a z-score of 0.122.
With `COc1ccc(C2CCCN2C(=O)Nc2ccc(C)c(C)c2)cc1OC` (centres undefined), the z-score was -1.77.
To `CC(=O)Nc1ccc(S(=O)(=O)Oc2ccc(/C=N/NC(=O)c3ccc(Cl)cc3)cc2)cc1` belongs -0.0274; to `COc1ccc(CC(=O)N2CCCc3ccccc32)cc1OC`, 0.0732; to `O=S(=O)(NCCOCC(F)(F)C(F)F)c1ccc2oc3ccccc3c2c1`, -0.151.
To `Cc1cc2nc(-c3ccc(SCc4ccc(C#N)cc4)nc3)[nH]c2cc1C` belongs -0.494; to `NC(=O)c1oc2ccc(Cl)cc2c1NC(=O)CN1CCOCC1`, -0.0772.
The result for `Cc1c(N=Cc2c(O)n(C)c(=O)c3ccccc23)c(=O)n(-c2ccccc2)n1C` reads -0.221; that for `CCOC(=O)CC(NC(=O)c1ccc(C)cc1)c1ccc(C)cc1` (centres undefined), -0.334.
As for `CCS(=O)(=O)N1CCCC(C(=O)NC2CCCC2)C1` (centres undefined), the z-score was found to be 0.574.
To `Cc1cc(C)c2oc(-c3cccc(NC(=O)c4ccc(F)cc4)c3)nc2c1` belongs -0.0725.
